Hit rate of the full screen: of about 410,000 compounds, about 5,000 (1.2%) were called active. Inconclusive results, whose numbers are uncertain, are shown with a selection of clear calls. The call rests on the fitted dose curve; in most records, active means well fitted inhibition curve with a large enough effect; inconclusive means small, poorly fitted or top-dose-only effect; inactive means no such curve, though single readings can be large or run the other way. Where the call is inconclusive, the potency comes from a doubtful curve fit.
Experiment: qHTS for Inhibitors of TGF-b; further: nearly all actives have a fitted effect of over 65% in size
Conditions: HepG2 CAGA-GFP TGF-b/SMAD3 reporter, GFP fluorescence, 18 h, TGF-beta stimulated, 500 pg/mL final; series mostly up to 46.1 µM; activity, negative = inhibition: at the top concentration
Summary of the method: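 Using HEPG2 CAGA-GFP reporter cells at 1000 cells/well, we pinned test compounds, stimulated with recombinant TGF-beta (500 pg/mL final) and measured total well GFP after 18 h.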
On the % scale 0 is the no-effect control and ±100 the full control effect; potency means the concentration at half of the fitted maximal effect; tags describe the fitted curve by direction and shape.

Compound | Potency | activity, negative = inhibition
CCn1cc([N+](=O)[O-])c(C(=O)N2N=C(c3ccc4ccccc4c3)CC2c2ccccc2O)n1 (stereo not given) | active: 14.1 µM | –
O=C(C[n+]1ccccc1Cl)c1ccc(Br)cc1 | – | inactive: -11.2%
O=C(Nc1ccc(S(=O)(=O)Nc2nccs2)cc1)c1cnc(Cl)c(Cl)c1 | inconclusive: 35.5 µM [inhibitor, single point] | –
CC(C(=O)N(C)C)N(C#N)c1nc(N(C)C)nc(N(C)C)n1 (stereo not given) | inconclusive: 1.26 µM [inhibitor, partial curve, poor fit] | –
N#Cc1ccc(NC(=S)/N=C(\N)c2ccccc2)cc1 | inconclusive: 22.4 µM [inhibitor, single point] | –
CC(C(=O)Nc1ccc2c(c1)OCO2)N(C)CC(=O)Nc1ccc(Cl)cc1 (stereo not given) | inconclusive: 15.8 µM [inhibitor, single point] | –
CCOC(=O)C1C(=O)OC(C)(C)C1C(CC)C(=O)c1c(C)cc(C)cc1C (stereo not given) | inconclusive: 35.5 µM [inhibitor, partial curve, poor fit] | –
CN(Cc1ccccc1)c1ccc(C(CC(N)=O)NC(=O)Cc2cccc3ccccc23)cc1[N+](=O)[O-] (stereo not given) | inconclusive: 35.5 µM [inhibitor, single point] | –
CCOC(=O)COc1nc(N(C)C)nc(N(C)C)n1 | inconclusive: 3.55 µM [inhibitor, single point] | –
CCCCNC(=O)C1(C)CCCCN1Cc1ccc(OCc2ccccc2)cc1 (stereo not given) | inconclusive: 31.6 µM [inhibitor, single point] | –
CC(C)(C)NC(=O)CSc1ncnc2c1cnn2-c1ccccc1 | – | inactive: -33.4%
O=[N+]([O-])c1cc(S(=O)(=O)Nc2ccccc2)ccc1Nc1ccccc1 | inconclusive: 25.1 µM [inhibitor, single point] | –
COc1cc(CNCCSc2nnnn2C)ccc1OCc1ccc(Cl)cc1Cl | inconclusive: 15.8 µM [inhibitor, partial curve, poor fit] | –
CC(C)(C)OC(=O)N1CCC(CC2CC(c3ccccc3)=NO2)(C(=O)NCc2ccccc2)CC1 (stereo not given) | inconclusive: 3.98 µM [inhibitor, partial curve, poor fit] | –
O=C1Nc2ccc(Br)cc2/C1=C/C1CC=CCC1 (stereo not given) | inconclusive: 25.1 µM [inhibitor, single point] | –
CC(=O)NCCCCCCNC(C)=O | – | inactive: 2.47%
O=C(Cc1cccc(NC(=O)C2CCN(C(=O)c3ccccc3)CC2)c1)Nc1cccc(C(=O)N2CCCCC2)c1 | – | inactive: 21.6%
CCc1cc2c(-c3ccccc3)cc(=O)oc2cc1OC(C)C(=O)NCC1CCC(C(=O)O)CC1 (stereo not given) | – | inactive: 5.44%
CCOC(=O)c1sc(=S)n(C)c1NC(=O)c1ccc(C(C)(C)C)cc1 | inconclusive: 35.5 µM [inhibitor, single point] | –
Clc1ccc(NCc2nc3ccccc3n2CCOc2ccccc2)cc1 | inconclusive: 5.62 µM [inhibitor, full curve] | –
O=C(COC(=O)c1ccc([N+](=O)[O-])s1)Nc1ccc(F)cc1 | inconclusive: 15.8 µM [inhibitor, single point] | –
Cc1ccccc1NC(=O)C(C)Sc1nnc(CN2CCCC2)n1Cc1ccccc1 (stereo not given) | – | inactive: 0.702%

Compound | Potency | activity, negative = inhibition
O=C(CCN1CCC(c2ccccc2)C1)c1ccccc1 (stereo not given) | inconclusive: 12.6 µM [inhibitor, single point] | –
COc1ccccc1C(CCNS(=O)(=O)c1ccc(C)cc1)c1ccco1 (stereo not given) | inconclusive: 35.5 µM [inhibitor, single point] | –
C(=N\Nc1nc2ccccc2[nH]1)/c1ccc2ncccc2c1 | inconclusive: 11.2 µM [inhibitor, partial curve] | –
CC(C)(C)c1cc(S(=O)(=O)CCc2ccccn2)cc(C(C)(C)C)c1F | inconclusive: 20 µM [inhibitor, single point] | –
On1onc2c3cc(-c4ccccc4)nc3ccc21 | inconclusive: 11.2 µM [inhibitor, partial curve] | –
CCC(Sc1nnc(-c2ccc(OC)c(OC)c2)c(-c2ccc(OC)c(OC)c2)n1)C(=O)NC1CCCC1 (stereo not given) | inconclusive: 10 µM [inhibitor, partial curve, poor fit] | –
Cc1ccc(C(=O)NC(=S)Nc2ccc(Oc3ccc(Cl)cc3)cc2)cc1 | – | inactive: -5.15%
CCOc1ccc(N(CC)C(=O)CCc2nc(-c3ccccc3F)no2)cc1 | inconclusive: 35.5 µM [inhibitor, single point] | –
Cn1c(=O)c2c(nc(NCCc3ccccc3)n2CC(=O)NCCc2ccccc2)n(C)c1=O | – | inactive: -0.225%
Cn1cnc(S(=O)(=O)N2CCCCC2c2cc(C(=O)NCc3ccc(F)cc3)no2)c1 (stereo not given) | – | inactive: -8.75%
C[C@H]1NS(=O)(=O)c2ccc(Br)cc2O[C@H]1c1ccccc1 | inconclusive: 35.5 µM [inhibitor, single point] | –
O=C(CSc1nc2ccccc2[nH]1)NCCc1ccc(Cl)cc1 | inconclusive: 15.8 µM [inhibitor, single point] | –
Cc1nc(NC(=O)C2CCCC2)sc1Cc1ccc2c(c1)OCO2 | inconclusive: 12.6 µM [inhibitor, single point] | –
Cc1ccc(CCN2CC(C(=O)NCc3cccnc3)CC2=O)cc1 (stereo not given) | inconclusive: 11.2 µM [inhibitor, partial curve, poor fit] | –
CCSc1nc(N2CCOCC2)c2c(c1C#N)CCCC2 | inconclusive: 7.08 µM [inhibitor, full curve, poor fit] | –
Cc1ccccc1C(=O)N1CCN(c2ccc(NC(=O)c3ccc([N+](=O)[O-])o3)cc2)CC1 | active: 3.16 µM | –
CCCCOc1ccc(C2CC(=O)N(C)C2=O)cc1 (stereo not given) | inconclusive: 11.2 µM [inhibitor, single point] | –
O=C(Nc1nc(-c2nc3ccccc3s2)cs1)c1ccco1 | – | inactive: 2.7%
CC1Oc2ccccc2N(CC(=O)NCCN2CCOCC2)C1=O (stereo not given) | – | inactive: 10.3%
Cc1c(CCO)sc[n+]1CC(=O)c1ccc2ccccc2c1 | – | inactive: -5.47%
COc1ccc(/C(C)=N/NC(=O)CNC(=O)/C=C\c2ccccc2OC)c(OC)c1 | inconclusive: 35.5 µM [inhibitor, single point] | –
COc1ccc(-c2onc3ccc(C(=O)/C=C/N(C)C)cc23)cc1 | – | inactive: 0.966%

Compound | Potency | activity, negative = inhibition
O=C(OCn1ncc(Cl)c(Cl)c1=O)c1cccc(C(F)(F)F)c1 | inconclusive: 35.5 µM [inhibitor, single point] | –
CCOCCCNC(=O)c1ccc2nc(-c3ccc(OC)c(OC)c3)c(-c3ccc(OC)c(OC)c3)nc2c1 | inconclusive: 3.16 µM [inhibitor, single point] | –
Cc1cc(C(=O)NCC(c2ccco2)N(C)C)no1 (stereo not given) | inconclusive: 35.5 µM [inhibitor, single point] | –
O=C(/C=C/[C@H]1O[C@@H](n2cnc3c(NC(=O)c4ccccc4)ncnc32)[C@H](O)[C@@H]1O)NCCCc1ccccc1 | – | inactive: 10.9%
O=C(COC(=O)c1ccc(F)c([N+](=O)[O-])c1)NC(=O)NCc1ccccc1 | inconclusive: 35.5 µM [inhibitor, single point] | –
COc1ccc(CCn2c(N)c(C(=O)NCc3ccco3)c3nc4ccccc4nc32)cc1OC | inconclusive: 12.6 µM [inhibitor, partial curve, poor fit] | –
CC(C)CC(COCc1ccc(Cl)cc1)N1CCN(C(=O)c2ccc(Cl)cc2Cl)CCC1=O (stereo not given) | inconclusive: 35.5 µM [inhibitor, single point] | –
CCOc1ccccc1NC(=O)C1CCN(S(C)(=O)=O)CC1 | – | inactive: 5.81%
CCOC(=O)C1CCN(C(=O)C2(NC(=O)Nc3ccc(F)cc3F)CCCCC2)CC1 | inconclusive: 3.98 µM [inhibitor, single point] | –
Cc1ccc(Cn2ccc(=O)c(OCc3c(Cl)cccc3Cl)c2C)cc1 | inconclusive: 35.5 µM [inhibitor, single point] | –
O=C(NCCn1cc(SCc2ccc(F)cc2)c2ccccc21)c1cccs1 | active: 11.2 µM | –
O=C1C2CCCN2C(c2ccc(Br)cc2)N1c1ccc(F)cc1 (stereo not given) | inconclusive: 4.47 µM [inhibitor, partial curve, poor fit] | –
N#Cc1ccc(N2Cc3ccccc3/C2=N/C(=O)Nc2ccc(Cl)cc2)cc1 | inconclusive: 35.5 µM [inhibitor, single point] | –
CCn1cc(C(=O)N2CCN(c3cc(Cl)ccc3C)CC2)c(=O)c2cc(S(=O)(=O)N3CCCCC3)ccc21 | – | inactive: -23.8%
Cc1cccc(-n2ncc3c2CCCC3NC(=O)CCN2CCCO2)c1C (stereo not given) | inconclusive: 11.2 µM [inhibitor, partial curve, poor fit] | –
CCCc1cc(=O)[nH]c(SCC(=O)N(CCOC)c2c(N)n(Cc3ccccc3)c(=O)[nH]c2=O)n1 | – | inactive: 9.63%
CC(C)C1C(=O)N(Cc2cn(CC3CCCCC3)nn2)CCS(=O)(=O)N1Cc1ccc(-c2ccc(F)nc2)cc1 (stereo not given) | inconclusive: 31.6 µM [inhibitor, single point] | –
CCc1nc(-c2ccc(C)c(S(=O)(=O)N3CCN(c4ccc(C(C)=O)cc4)CC3)c2)no1 | inconclusive: 2.51 µM [inhibitor, full curve] | –
Nc1c(S(=O)(=O)c2cccs2)c2nc3ccccc3nc2n1Cc1ccc2c(c1)OCO2 | inconclusive: 35.5 µM [inhibitor, single point] | –
CC(=O)c1ccc(-c2cccc(-c3cc(=O)oc4ccc(C(C)(C)C)cc34)c2)cc1 | inconclusive: 14.1 µM [inhibitor, partial curve, poor fit] | –
CCOc1nc(Nc2ccc(OC)c(Cl)c2)nc(N2CCN(c3ccc(OC)cc3)CC2)n1 | inconclusive: 35.5 µM [inhibitor, single point] | –

Source: PubChem BioAssay AID588855 (National Center for Advancing Translational Sciences (NCATS), 2011)
